According to patent publication US20180037644A1 (Pfizer, published 2018):

Columns and labels:
Assay in all cases: cell-based or functional assay
[1] = biological target: T1, cynomolgus monkey IL-33 (cys mut) (cynomolgus monkey)
T1 chain: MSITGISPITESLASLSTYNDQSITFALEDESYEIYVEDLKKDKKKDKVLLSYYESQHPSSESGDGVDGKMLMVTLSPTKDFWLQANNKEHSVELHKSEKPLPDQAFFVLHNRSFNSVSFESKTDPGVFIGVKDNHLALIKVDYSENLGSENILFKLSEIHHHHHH

human IL-33 (mm2) [2] = biological target: T2, human IL-33 (mm2) (human, UniProt O95760 112-270)
T2 chain: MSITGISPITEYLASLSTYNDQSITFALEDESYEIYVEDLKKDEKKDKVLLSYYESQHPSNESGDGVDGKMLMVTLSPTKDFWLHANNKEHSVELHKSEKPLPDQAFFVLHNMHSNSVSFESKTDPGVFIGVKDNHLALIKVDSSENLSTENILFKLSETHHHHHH

human IL-33 (mm2) [3] = biological target: T2, human IL-33 (mm2)
human IL-33 WT (R&D) = biological target: T3, human IL-33 WT (R&D) (human, UniProt O95760 112-270)
T3 sequence: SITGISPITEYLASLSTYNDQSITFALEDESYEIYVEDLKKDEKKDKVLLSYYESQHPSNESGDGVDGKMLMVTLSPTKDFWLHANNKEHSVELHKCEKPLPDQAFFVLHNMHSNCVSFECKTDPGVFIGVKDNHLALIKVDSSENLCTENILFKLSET

[4] = biological target: T1, cynomolgus monkey IL-33 (cys mut)

- IC50, HEK293 ST2 NFkB [1]: 0.045 nM
- IC50, HEK293 ST2 NFkB (human IL-33 (mm2) [2]): 0.043 nM
- IC50, HEK293 ST2 NFkB (human IL-33 (mm2) [3]): 0.056 nM
- IC50, HEK293 ST2 NFkB (human IL-33 WT (R&D)): 1.89 nM
- IC50, HEK293 ST2 NFkB [4]: 0.005 nM
B1: human ST2-Fc-His (R&D) (Fc fusion)
chain: KFSKQSWGLENEALIVRCPRQGKPSYTVDWYYSQTNKSIPTQERNRVFASGQLLKFLPAEVADSGIYTCIVRSPTFNRTGYANVTIYKKQSDCNVPDYLMYSTVSGSEKNSKIYCPTIDLYNWTAPLEWFKNCQALQGSRYRAHKSFLVIDNVMTEDAGDYTCKFIHNENGANYSVTATRSFTVKDEQGFSLFPVIGAPAQNEIKEVEIGKNANLTCSACFGKGTQFLAAVLWQLNGTKITDFGEPRIQQEEGQNQSFSNGLACLDMVLRIADVKEEDLLLQYDCLALNLHGLRRHTVRLSRKNPSKECFIEGRM[gap - human IgG1 Fc and a few adjoining residues]

Read-outs that look alike come from different tables or passages of the source.
